Test results as given in the supplement of paper PMC3334620.
Whole data set: some 33,000 sequences, median “E-score (-0.5 to 0.5)” near -0.054, cut for the highest 2% near 0.39. This is one part of the list.

What follows are sequences tested against Ylr278c (UniProt Q05854) (assay: PBM E-score (8-mer binding enrichment) (E-score (-0.5 to 0.5)); higher = stronger / more preferred TF binding; most listed sequences are background and not binding sites). Conditions: protein concentration: 200 nM; construct: GST-DNA-binding domain.
In short: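 Yeast transcription factors, full-length or as DNA-binding domains, were expressed with a GST tag using PURExpress in vitro transcription/translation. At about 100-200 nM they were applied to universal all-10-mer Agilent arrays, double-stranded by primer extension on fresh or once-stripped slides. Fluorescent anti-GST detected bound protein, and masliner normalised the scans. E-scores for ungapped eight-base words, pooled with reverse complements, came from the Universal PBM Analysis Suite.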

Sequence | PBM E-score
GGTCCAGA | -0.112
CGTGAATC | -0.0386
CCGCGCAC | 0.22
AATCAAAA | 0.109
CCCGCCGG | 0.384
CAATTAAC | -0.0354
ACGTAGTC | -0.164
GAGGCAGA | -0.207
ACGCAGCC | -0.0587
AAATTAGT | -0.076
AAAAGCCG | 0.388
CCAGTGCC | -0.167
ATTTTGCA | -0.0861
GACCGGCC | 0.291
AGCCGTAT | -0.0908
CGGGAAAA | 0.259
CCTATAAA | -0.0348
GCCGGCGA | 0.385
GACAACAA | -0.164
AGAGATAT | -0.256
GAGTGCAC | 0.0372
AATTTTCC | 0.358
AGTGAAGA | -0.14
AGCGGAAG | 0.305
AACATTTA | -0.0141

Sequence | PBM E-score
AGCCATGA | -0.103
GGGAGCCC | -0.059
CTGTTGTA | -0.0433
AAAGAACA | -0.126
TAACTTCA | -0.198
CAGATTAG | -0.223
AAGAGGCC | 0.137
AGCGCCCT | -0.00488
GTTCGTGA | -0.177
CAAAGTGG | -0.285
AGTACGTA | -0.124
GGTAGACC | -0.0527
GTGACCGA | 0.101
GACCGACC | 0.0515
ACGAAGCG | -0.162
CAGGTCCA | -0.226
CTTGCGCC | -0.105
CACCACTG | -0.335
ATCGACGA | 0.0209
CCGACTAC | 0.295
CTAGTGAA | -0.112
CCAGGGAC | -0.188
ATGTCTTC | -0.153
ACCCAAAC | 0.0213
ATCCCCAC | -0.00192

Sequence | PBM E-score
ATTCTTTG | -0.159
ATTAAGGA | -0.0299
AGCTGCGA | -0.0578
GCCATTCA | 0.12
GCTGATGA | -0.217
GACCGGAC | 0.383
CTCTAATC | -0.0678
CACGAGTC | -0.202
ACCTTCGC | 0.00825
CAGCGGAG | 0.408
CAACAGCA | -0.0177
CAAACGAG | -0.0823
ATATTGAA | -0.00985
AATCATAG | -0.04
AACATTCG | 0.0713
AATTACCG | 0.275
GTTCAGAA | -0.175
AACAAGAA | -0.0843
AGTGGATG | -0.158
ACAGACCC | -0.052
TACCTGAA | -0.23
AAAGCCCG | 0.338
AACTATCA | -0.111
CTGCGCGC | 0.138
GTATTACA | -0.0417

Sequence | PBM E-score
CGGTGCCA | 0.0473
AAAGGTGG | -0.126
ACGGCCTA | 0.106
AGATGGCA | -0.00669
ACCTGAGC | -0.197
ACGATTAA | -0.0627
ACTCAGAT | -0.182
TCCGCGCA | 0.374
AGCGGTCA | 0.0962
TCTATTCA | -0.218
GGCTGACA | 0.0842
CATTCGGC | 0.312
ACGAGAGG | -0.16
TACTTCTA | -0.212
AATACAGA | -0.158
CGTACATA | -0.115
ACCCGACT | 0.105
GCGAATCC | 0.111
AAGCCGAG | 0.226
GTTTTGTA | -0.0964
GACGCGAC | -0.133
CTCCCTTC | -0.275
CTCTTGAC | -0.177
AACGGGTC | -0.0645
AGCAAGAT | -0.0184

Sequence | PBM E-score
CTAATCCA | -0.135
GAACTATC | -0.121
CAGAACCG | -0.00913
TAGCCCAA | -0.13
CAACAAAC | 0.00596
GTGCACAC | -0.231
ACACTCTG | -0.112
CCGCCACC | 0.198
ACTCTGCG | 0.00898
ATAGCGCG | 0.0396
GCTTCTCC | 0.205
CTGGTACC | -0.0388
TTCGCCAA | -0.216
ACAGTGAC | -0.11
CATCGGCG | 0.304
CGTCAATA | -0.107
ATGCGGAC | 0.374
ATTTGGCG | -0.0905
AGACTCGA | -0.128
GGTACCAC | -0.0762
GCATAAGA | -0.0502
CTCTGGAC | -0.0996
CTCGGCTA | 0.0928
ATAGTACC | -0.0594
ATTGCCAG | 0.0457

Sequence | PBM E-score
AATACCAC | -0.0734
ACTGTCCT | -0.131
AATTTCGG | 0.319
AAATTTTG | -0.107
AGCACTGC | -0.166
AAGTCAGC | -0.0474
TAACTCTA | -0.177
GCGCTAGA | -0.0362
CAGAACAC | 0.0343
TGGCTTAA | -0.11
AAGGTTCA | -0.0585
TCGCTAGA | -0.208
AAGAGTAT | -0.263
AGCACAGC | 0.0001
AGGCCGAC | 0.324
TTGGCCAA | -0.201
CAAATCCC | 0.174
CTGTCCGA | 0.335
CACAAGAC | -0.172
AACAGGCT | -0.245
CATATCCA | -0.214
ATGGATCA | -0.124
AAGCCTGG | -0.0749
CCTGTGGC | -0.166
AGTTTTAA | -0.0278

Sequence | PBM E-score
AGGCTACG | -0.25
ACCGAACG | 0.201
GCGCGAAA | 0.109
GTAAAAAC | -0.0871
GCTCCCTA | -0.252
CCTAAACG | -0.0312
GCTCGGAA | 0.338
AGCTGTGG | -0.238
GACTTCGC | 0.222
CTGTTTGA | -0.216
CGCTGTTC | -0.109
AATGTAGG | -0.0899
CCCTAGAC | -0.19
AGTCCCTG | -0.179
AGCGGGTG | 0.114
GATTACAC | -0.0511
GCAAGGGA | -0.22
ACCTTCAC | -0.195
ATATTATC | -0.0613
AGTCGCTA | -0.312
CATAGCCA | -0.115
CTAGGCCC | -0.00349
